# In the RNAGym collection of RNA variant scans (doi:10.1073/pnas.2313332121):
# Variants at the background level are over-represented here.
# B1: TPR 5TU (parent)
# chain: GGAUCUUCUCGAUCUAACAAAAAAGACAAAUCUGCCACAAAGCUUGAGAGCAUCUUCGGAUGCAGAGGCGGCAGCCUUCGGUGGCGCGAUAGCGCCAACGUUCUCAACUAUGACACGCAAAACGCGUGCUCCGUUGAAUGGAGUUUAUCAUG
# Variants of: B1
# Test: polymerase ribozyme fitness, log enrichment relative to wild type (log ratio); higher = more active; in vitro selection for triplet polymerase activity
# In short: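 Fitness compares each genotype's enrichment to that of the wild type on a logarithmic scale, averaging replicates with inverse-variance weights. The logarithm is base 2. Enrichment came from Illumina sequencing of input and output libraries after one triplicate round of in vitro selection, which included frozen incubation at −7 °C, of PCR-built, transcribed mutant libraries of each subunit of a heterodimeric triplet polymerase ribozyme. Only genotypes with ≥10 input reads and ≥1 read per output were kept.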
row,Variant,polymerase ribozyme fitness (log ratio)
1,GGAUCUUCUCGAUCUAACAACAAAGACAAAUUUGCCACAAAGCUUGAGCACAACUCCAGAUGCAGAGGCGGCAGCCUUCGGUGGCGCGAUAGCGCCAACGUUCUCAACUAUGACACGCAAAACGCGUGCUCCGUUGAAUGGAGUUUAUCAUG,≤ -4.2
2,GGAUCUUCUCGAUCUAACAACAAAGACAAAUCUGCCACAAAGCUUGAGAGCAUCUUCGGAUGCAGAGGCGGCAGCCUUCGGUGGCGCGAUAGAGCCAACGUUCUCAACUAUGACACGCAAAACGCGUGCUCCGUUGAAUGGAGUUUAUCAUG,-2.02
3,GGAUCUUCUCGAUCUAACAACAAAGACAAAUCUGCCACAAAGCUUGAGAGCAUCUUGGGAUGCAGAGGCGGCAGCCUUCGGUGGCGCGAUAGCGCCAACGUUCUCAACUAUGACACGCAAAACGCGUGCUCCGUUGAAUGGAGUUUAUCAUG,-0.649
4,GGAUCUUCUCGAUCUAACAACAAAGACAACUCUGCCACAAAGCUUGACAGCAUCUUCCGAUGCAGAGUCGGCAGCCUUCGGUGGCGCGAUAGCGCCAACGUUCUCAACUAUGACACGCAAAACGAGUGCUCCGUUGAAUGGAGAUUAUCAUG,≤ -4.2
5,GGAUCUUCUCGAUCUAACAACAAAGACAAAUCUGCCACAAAGCUUGAGAGCAUCUUCGGAUGCAGAGGCGGCAGCCUUCGGUGGGGCGAUAGCGCCAACGUUUUCAACUAUGACACGCAAAACGCGUGCUCCGUUAAAUGGAGUUUAUCAUG,-1.18
6,GGAUCUUCUCGAUCUAACAACAAAGACAAAUCUGCCACAAAGCUUGAGAGCAUCUUUGGAUGCAGAGGCGGCAGCAUUCGGUGGCGCGAUAGCGCCAACGUUCACUACUAUGACACGCAAAACGCGUGCUCCGUUGAAUAGAGUUUAUCAUG,≤ -4.2
7,GGAUCUUCUCGAUCUAACAACAAAGACAAAUCUGCCACAAAGCUUGAGAGCAUCUUCGGCUGCAGAGGCGGCAGCCUUCGGUGGCGCGAUAGCGCUAACGUUCUCGACUAUGACACGCAAAACGUGUGCUCCGUUGAAUGGAGUUUAUGAUG,≤ -4.2
8,GGAUCUUCUCGAUCUAACAACAAAGACAAAUCUGCCACACAGCUUGAGAGCAUCUUCGGAUGCAGAGGCGGCAGCCUUCGGUGGCGCGAUAGCACCAACGUUCUCAACUAUGACACGCAAAACGCGUUCUCCGUUGAAUGGAGUUUAUCAUG,-3.51
9,GGAUCUUCUCGAUCUAACAACAAAGACAAAUCUGCCACAAAGCUUGAGAGCAUCUUCGGAUGCAGAGGAGGCAGCCUUCGGUGGCGCGAUAGCGCCAACGUUCUCAACUAUGACACGCAAAACGCGUGCUCCGUUGAAUGGAGUUUAUCAUG,-1.75
10,GGAUCUUCUCGAUCUAACAACAAAGAUAAAUCUGCCACAGAGCUUGAGAGCAUCUUCGGAUGCAGAGGCGGCAGCCUUCGGGGACGCGAUAGCGCGAACGUUCUCAACUAUGACACGCAAAACGCGUGCUCCGUUGAAUGGAGUUUAUCAUG,≤ -4.2
11,GGAUCUUCUCGAUCUAACAACAAAGACAAGUCCGCCACAAAGCUUGAGAGCAUCUUCUGAUGCAGAGGCGGCAGCCUUCGGUGGCGCGAUAGCGCCAACGUUCUCAACUAUGACACGCAAAACGCGUGCUCCGUUGAAUGGAGUUUAUCAUG,≤ -4.2
12,GGAUCUUCUCGAUCUAACAACAAAGAGAAAUCUGCCACAAAGCUUGAGAGCAUCUUAGGAUGCAGAGGCGGCAGCAUUCGGUGGCGCGAUAGCGCCAACGUUCUCAACUAUGACACGCAAAACGCGUGCUCCGUUGAAUGGAGUUUAUCAUG,≤ -4.2
13,GGAUCUUCUCGAUCUAACAACAAAGACAAAUCUGCCACAAAGCUUGAGAGCAUCUUCGGAUGCAGAGGCGGCAGCCUUCGGUGGCGUGAUAGCGCCAACGUUCUCAACUAUGACACGCAAAACGCGUGCUCCGUUGAAUGGAGUUUAUCAUG,0.0419
14,GGAUCUUCUCGAUCUAACAACAAAGACAAAUCUGCCACAAAGCUUGAGAGCUGCUUCGGAUGCAGAGGCGGCAGCCUUCGGUAGCGCGAUAGCGCCAACGUUCUCAACUAUGACACGCAAGACGCGUGCUCCGUUGAAUGGAGUUUAUCAUG,≤ -4.2
15,GGAUCUUCUCGAUCUAACAACAAAGACAAAUCUGCCACAAAGAUUGAGACCAUCUUCGGAUGCAGAGGCGGCACCAUUCGGUGGCGAGAUGGCGCCAACGUUCUCAACUAUGACACGCGAAACGCGUGCUCCGUUGAAUGGAGUUUAUCAUG,≤ -4.2
16,GGAUCUUCUCGAUCUAACAACAAAGACAAAUCUGCCACAAAGCUUGAGAGCAUCUUGGGAUGCAGAGGCGGCAGCCUUCGGUGGCGCGAUAGCGCCAACGUUCUCACCUAUGACACGCAAAACUCGUGCUCCGUUGAAUGGAGUUUAUCAUG,≤ -4.2
17,GGAUCUUCUCGAUCUAACAACAAAGACAAAUCUGCCACAACGCUUGAGAGCAUCUUCGGAUGCAGAGGCGGCGGCCUUCCGUGGCGCGAUAGCGUCAAGGUUCUCAACUAUGACACGGAAAACGCGUGCUCCGUUGAAUGGAGUUUAUAAUG,≤ -4.2
18,GGAUCUUCUCGAUCUAACAACAAAGACAAAUCUGCCACGAAGCUUGAGAGCAUCGUCGGAUGCAGAGGCGGCAGCCUUCGGUGGCGCGAUAGCACCAACGUUCUCAACUAUGACACGCAAAACGCGUGCUCCGGAGAGUGGAGUUUAUCAUG,≤ -4.2
19,GGAUCUUCUCGAUCUAACAACAAAGACAAAUCUGCCACAAAGCUUGAGAGCAUCUUCGGAUGCAGAGGCGGCAGCCUUCGGUGGCGCGAUAGCGCUAACGUUCUCAACUAUGACACGCAAACCGCGUGCUCCGUUGAAUGGAGUUUAUCAUG,-0.0635

row,Variant,polymerase ribozyme fitness (log ratio)
1,GGAUCUUCUCGAUCUAACAACAAAGACAAAUGUGCCUCAAAGCUUGAGGGCAUCUUUGGAUGCAGAGGCGGCAGGCUUCGGUGACGCGAUAGCGCCAACGUUCUCACCUAUGACACGCAAAACGCGUGCUCCGUUGAAUGGAGUUUUUCAUG,≤ -4.2
2,GGAUCUUCUCGAUCUAACAACAAAGACAAAUCUGCCACAAAGCUUGAGAGCAUCUUUCGAUGCAGAGGCGGCAGCCUUGGGUGGCGCGAUAGCGCCAACGUUCUCAACUAUGACACGCACAACGCGUGUUCCGUUGAAUGGAGUUUAUCAUG,≤ -4.2
3,GGAUCUUCUCGAUCUAACAACAAAGACAAAUCUGCCACAAAGCUUGAGAGUAUCUUCGGAUGCAGAGGCGGCAGCCUUCGGUGGCGCGAUAGCGCCAACGUUCUCGACUAUGACACGCAAAACGCGUGCUCCGUUGAAUGGAGUUUAUCAUG,-0.144
4,GGAUCUUCUCGAUCUAACAACAAAGACAAAUCUGCCACAAAGCUUGCGAGCAUCUUCGGAUGCAGAAGCGGCAGCCUUCGGUGGCGCGAUAGCGCCAACGUUCUCAACUAUGACACGCAAAACGCGUGCUCCGUUGAAUGGAGUUUAUCAUG,≤ -4.2
5,GGAUCUUCUCGAUCUAACAACAAAGACAAAUCUGGCACAAAGCUUGAGCGCAUCUUCGGAUGCAGAGGCGGCAGCCUUCGGUGGCGCGAUAGCGCCAACGAUCUCAACUAUGACACGCAAAACGCGUGCUCCGUUGAAUGGAGUUUAUCAUG,≤ -4.2
6,GGAUCUUCUCGAUCUAACAACAAAGACAAAUCUGCCACAAAGCUUGAGAGCAUCUUCGGAUGCAGAGGCGGCAGCCUUCGGUGGCGCGAUAGCGCUAACGUUCUCAACUAUGACACGCAAAACGCGUGCUCCGUUGAAUGGAGUUUAUCAUG,0.207
7,GGAUCUUCUCGAUCUAACAACAAAGACAAAUCUGCCACAAAGCUUGAGAGCAUCUUCGGAUGCGGAGGCGGCCGCCUUCGGUGGCGAGAUAGCGCCAACGUUCUCAACUAUGAUACGCAAAACGCGUGCUCCGUUGAAUGGAGUUUAUCAUG,≤ -4.2
8,GGAUCUUCUCGAUCUAACAACAAAGACAAAUCUGCCACAGAGCUAGAGAGCAUCUUCGGAUGCAGAGGCGGCAGCCUUCGGUGGAGCGAUAGCGCCAACGUUCUCAACUAUGACACGCAAAACGCGUGCUCCUUUGAAUGGAUUUUAUCAUG,≤ -4.2
9,GGAUCUUCUCGAUCUAACAACAAAGACAAAUCUGCCACAAAGCUUGAGAGCAUCUUCGGAUGCAGAGGCGGCAGCAUUGGGUGGCGCGAUAGCGCCAACGUUCUCAACUAUGACACGCAAAACGCGGGCUCCGUUGAAUGGAGUUUAUCAUG,≤ -4.2
10,GGAUCUUCUCGAUCUAACAACAAAGACAAAUCUGCCACAAAGCUUGAGAGCAUCUUCGGAUGCAGAGGCGGGUGCCUUCGGUGGCGCGAUAGUGCCAAGGUUCUCAACUAUGACACGCAAAACGCUUGCUCCGUUGAAUGGAGUUUAUCAUG,≤ -4.2
11,GGAUCUUCUCGAUCUAACAACAAAGACAUAUCUGCCACAAAGAUUGAGAGCAUCAUCGGAUGCAGAGGCGGCAGCCUUCGGUAGCGCGAUAGCGCCAACGUUCUCACCUAUGACACGCAAAACGCGUGCUCCGUUGAAUGGAGUUUAUCAUG,≤ -4.2
12,GGAUCUUCUCGAUCUAACAACAAAGACAAAUCUGCCACAAAGAUUGAGAGCAUCUUCGGAUGCAGAGGCGGCAGCCUUCGGUGGCGCGAUAGCGCCAACGUUCUCAACUAUGGCACGCAAAACGCGUGCUCCGUUGAAUGGAGUUUAUCAUG,≤ -4.2
13,GGAUCUUCUCGAUCUAACAACAAAGACAAAUCUGCCACAAAGAUUGAGAGCAUCUUCGGAUGCAGAGGCGGCAGCCUUCGGUGGCGCGAUAGCGCCAACGUUCUCAACUAUGACACGCAAAACGCGUGCUCCGUUGAAUGGAGUUUAUCAUG,≤ -4.2
14,GGAUCUUCUCGAUCUAACAACAAAGACAAAUCUGCCACAAAGGUUGAAAGCAUCUUCGGAUGCAGAGGCGGCAGCCUUCGGUUGAGCGAUAGCGCCAACGUUCUCAACUAUGACACGCAAAACGCGUGCUCCGUUGAAUGGAGUUUAUCAUG,≤ -4.2
15,GGAUCUUCUCGAUCUAACAACAAAGACAAAUCUGCCACAAAGCUUGUGAGCAUCUCCGGAUGCAGAGGCGGCAGCCUUCGGAGGCGCGAUAGCGCCAACGUUAUCAACUAUGACGCGCAAAACGCGUGCUCCGUUGAAUGGAGUUUAUCAUG,≤ -4.2
16,GGAUCUUCUCGAUCUAACAACAAAGACAAAUCUGCCACAAAGCUUGAGAGAAUCUUCGGAUGCAGAGGCGGCAGGCUUCAGUGGCGCGAUAGCGCCAACGUUCUCAACUAUGAGACGCAAAACGCGUGCUCCGUUGAAUGGAGUUUAUCGUU,≤ -4.2
17,GGAUCUUCUCGAUCUAACAACAAAGACAAAUCUGACACAAAGCUAGAGAGCAUCUUCGGAUGCAGAGGCGGCAGCCUUCGGUGGUGCGAUGGCGCCAACGUUCUCAACUAUGACACGCAAAACGCGUGCUCCGUUGAAUGGAUUUUAUCAUG,≤ -4.2
18,GGAUCUUCUCGAUCUAACAACAAAGACAAAUCUGCCACAAAGCUUGAGGGCAUCUUCGGAUGCAGAGGCGGCAGCCUUCGGUGCCGCGAUAUCGCCAACGUUCUCAACUAUGACACCCAAAACGCGUGCUCCGUUGAAUGGAGUUUAUCAUG,≤ -4.2
19,GGAUCUUCUCGAUCUAACAACAAAGACAAAUCUGCCACAAUGCUUGAGAGCAUCUUCGGGUGCAGAGGCGGCAGUCUUCGGUGGCGUGAUAGCGCCAACGUUCUCAUCUAUGACACGCAAAACGCGUGCUCCGUUGAAUGGAGUUUAUAAUG,≤ -4.2
